Measured values from the RNAGym collection of RNA variant scans (doi:10.7554/elife.90254).
The source gives no read counts; variants with many changes may rest on few reads.

B1: LINE1-full (parent)
chain: UACGUAGGUGGUUUUCCCCUGAUAGUGCUAAGGGGGCCUGGAAGUUUGGACUGGGCAGAGCUCAACACAGCGUGGCAAAGUGGCUGUGGCUAGACUGCCUCUCUGGAUUCCUCGUCACUCAGCAGGGCAUCUCUGAGAGAAAUGCC

Variants of: B1
Experiment: self-cleavage, relative activity (ratio to wild type); higher = more cleavage; in vitro, sequencing; the parent is a self-cleaving ribozyme

Row | Variant | self-cleavage
1 | UACGUAGGUGGUUUUCCCCUGAUAGUGCUAAGGGGGCCUGGAAGUCUGGACUGGGCAGAGCUCAACACAGCGUGGCAGAGUGGCUGUGGCUAGACUGCCUCUCUGGAUUCCUCGCCACUCAGCAGGGCAUCUCUGAGAGAAAUGCC | 1.43
2 | UACGUAGGUGGUUUUCCCCUGAUAGUGCUAAGGGGGCCUGGAAGUCUGGACUGGGCAGAGCUCAACACAGCGUGGCAGAGUGGCUGUGGCUAGACUGCCUCUCUGGAUUCCUCGUCACUCAGCAGGGCAUCUCCGAGAGAAAUGGC | 1.84
3 | UACGUAGGUGGUUUUCCCCUGAUAGUGCUAAGGGGGCCUGGAAGUCUGGACUGGGCAGAGCUCAACACAGCGUGGCAUAGUGGCUGUGGCUAGACUGCCUCUCUGGAUUUCUCGUCACUCAGCAGGGCAUCUCUGAGAGAAAUGCC | 2.33
4 | UACGUAGGUGGUUUUCCCCUGAUAGUGCUAAGGGGGCCUGGAAGUCUGGACUGGGCAGAGCUCAACACAGCGUGGCAAGGUGGCUGUGGCUAGACUGCCUCUCUGGAUACCUCGUCACUCUGCAGGGCAUCUCUGAGAGAAAUGCC | 0.95
5 | UACGUAGGUGGUUUUCCCCUGAUAGUGCUAAGGGGGCCUGGAAGUCUGGACUGGGCAGAGCUCAACACAGCGUGGCAAAGUGGCUGUGGCUGGACUGCCUCCCUGGAUUCCUCGUCACUCAGCAGGGCAUCUAUGAGAGAAAUGCC | 0
6 | UACGUAGGUGGUUUUCCCCUGAUAGUGCUAAGGGGGCCUGGAAGUCUGGACUGGGCAGAGCUCAACACAGCGUGGCAAAGUGGCUGUGGCUAGGCUGCCUCACUGGAUUCCUCGUCACUCAGCAGGGCACCUCUGAGAGAAAUGCC | 0
7 | UACGUAGGUGGUUUUCCCCUGAUAGUGCUAAGGGGGCCUGGAAGUCUGGACUGGGCAGAGCUCAACACAGCGUGGCAAAGUGGCUGUGGCUAGACUGCCUCUCUGGGUUCCUCGUCACUCAGCAGGGCAUCUCUGAGAGAAGUGCC | 2.55
8 | UACGUAGGUGGUUUUCCCCUGAUAGUGCUAAGGGGGCCUGGAAGUCUGGACUGGGCAGAGCUCAACACAGCGUGGCAAAGUGGCUGUGGCUAGACUGCCUCUCUGGGUUCCUCGUCACUCAGCAGGGCAUCUCCGAGAGAAAUGCC | 0
9 | UACGUAGGUGGUUUUCCCCUGAUAGUGCUAAGGGGGCCUGGAAGUCUGGACUGGGCAGAGCUCAACACAGCGUGGCAAAGUGGCUGUGGCUAGACUGCCUCUCUGGAUUCCUCGUCACUCUGCAGAGCAUCUCUGAGAGAAAUGCC | 1.8
10 | UACGUAGGUGGUUUUCCCCUGAUAGUGCUAAGGGGGCCUGGAAGUCUGGACUGGGUAGAGCUCAACACAGCGUGGCAAAGUGGCUGUGGCUAGACUGCCUCUCUGGAUUCCUCGUCACUCAGCAGGGCAUCUCUGAGAGGAGUGCC | 0.48
11 | UACGUAGGUGGUUUUCCCCUGAUAGUGCUAAGGGGGCCUGGAAGUCUGGACUGGGUAGAGCUCAACACAGCGUGGCAAAGUGGCUGUGGCUAGACUGCCUCACUGGAUUCCUCGUCACUCAGCAGGGCAUCUCUGAGAGAAAUGCC | 0.09
12 | UACGUAGGUGGUUUUCCCCUGAUAGUGCUAAGGGGGCCUGGAAGUCUGGACUGGGCAGAGCUUAACACAGCGUGGCAAAGUGGCUGUGGCUAUACUGCCUCUCUGGAUUCCUCGUCACUCAGCAGGGCAUCUCUGAGGGAAAUGCC | 0.04
13 | UACGUAGGUGGUUUUCCCCUGAUAGUGCUAAGGGGGCCUGGAAGUCUGGACUGGGCAGAGCUCAAUACAGCGUGGCAAAGUGGCUGUGGCUAGACUGCCUCUCUGGAUUCCUCGUCACUCAGCAGGGCAUCUCUGAGAGAAUUGCC | 0.05
14 | UACGUAGGUGGUUUUCCCCUGAUAGUGCUAAGGGGGCCUGGAAGUCUGGACUGGGCAGAGCUCAAUACAGCGUGGCAAAGUGGCUGUGGCUAGACUGCCUCUCUGGAUCCCUCGUCACUCAGCAGGGCAUCUCUGAGAGAAAUGCC | 0.05
15 | UACGUAGGUGGUUUUCCCCUGAUAGUGCUAAGGGGGCCUGGAAGUCUGGACUGGGCAGAGCUCAACACAGCGUGGAAAAGUGGCUGUGGCUAGACUGCCUCCCUGGAUUCCUCGUCACUCAGCAGGGCAUCUCUGAGAGAAAUGCC | 1.55
16 | UACGUAGGUGGUUUUCCCCUGAUAGUGCUAAGGGGGCCUGGAAGUCUGGACUGGGCAGAGCUCAACACAGCGUGGCAAAGUGGUUGUGGCUAGACUGCCCCUCUGGAUUCCUCGUCACUCAGCAGGGCAUCUCUGAGAGGAAUGCC | 0.26
17 | UACGUAGGUGGUUUUCCCCUGAUAGUGCUAAGGGGGCCUGGAAGUCUAGGCUGGGCAGAGCUCAACACAGCGUGGCAAAGUGGCUGUGGCUAGACUGCCUCUCUGGAUUCCUCGUCACUCAGCAGGGCAUCCCUGAGAGAAAUGCC | 1.09
18 | UACGUAGGUGGUUUUCCCCUGAUAGUGCUAAGGGGGCCUGGAAGUCUGAACUGGGCAGGGCUCAACACAGCGUGGCGAAGUGGCUGUGGCUAGACUGCCUCUCUGGGUUCCUCGUCACUCAGAAGGGCAUCUCUGAGAGAAAUGCC | 0.11
19 | UACGUAGGUGGUUUUCCCCUGAUAGUGCUAAGGGGGCCUGGAAGUCUGAACUGGGCAGAGCUCAACGCAGCCUGGCAAAGUGGCUGUGGCUAGACUGCCUCUCUGGAUCCCUCGUCACUCAGCAGGGCAUCUCUGAGAGAAAUGCC | 0.09
20 | UACGUAGGUGGUUUUCCCCUGAUAGUGCUAAGGGGGCCUGGAAGUCUGGACUGAGCAGAGCUCAACACAGCGUGGCAAAGUGGCUGUGGCCAGACUGCCUCUCUGGAUUCCUCGUCACUCAGCAGGGCAUCUCUGAGAGAAAUGCC | 0.09

Row | Variant | self-cleavage
21 | UACGUAGGUGGUUUUCCCCUGAUAGUGCUAAGGGGGCCUGGAAGUCUGGACUGAGCAGAGCUCAACACAGCGUGGCAAAGUGGCUGUGGCUAGACAGCCUCUCUGGAUUCCUCGUCACUCAGCAGGGCAUCUCUGAGAGAAAUGCC | 0.04
22 | UACGUAGGUGGUUUUCCCCUGAUAGUGCUAAGGGGGCCUGGAAGUCUGGACUGGGCAGAACUCAACACAGCGUGGCAAAGUGGCUGUGGCUAGACUGCCUCUCUGGUUUCCUCGUCACUCAGCAGGGCAUCUCUGAGAGAGAUGCC | 0
23 | UACGUAGGUGGUUUUCCCCUGAUAGUGCUAAGGGGGCCUGGAAGUCUGGACUGGGCAGAUCUCAGCACAGCGUGGCAAAGUGGCUGUGGCUAGACUGCCUCUCUGGAUUCCUCGUCACUCAGCAGGGCAUCUCUGAGAGGAAUGCC | 0
24 | UACGUAGGUGGUUUUCCCCUGAUAGUGCUAAGGGGGCCUGGAAGUCUGGACUGGGCAGAGCUCAACACAGCAUGGCAAAGUGGCUGCGGCUAGACUGCCUCUCUGGAUUCCCCGUCACUCAGCAGGGCAUCUCUGAGAGAAAUGCC | 0.16
25 | UACGUAGGUGGUUUUCCCCUGAUAGUGCUAAGGGGGCCUGGAAGUCUGGACUGGGCAGAGCUCAACACAGCGUGGCAAAGUAGCUGUGGCUAGGCUGCCUCUCUGGUUUCCCCGUCACUCAGCAGGGCACCUCUGAGAGAAAAGCC | 0.5
26 | UACGUAGGUGGUUUUCCCCUGAUAGUGCUAAGGGGGCCUGGAAGUCUGGACUGGGCAGAGCUCAACACAGCGUGGCAAAGUGGCUAUGGCUAGACUGCCUCUCUGGGUUCCUCGUCACUCAGCAGGGCAUCUCUGAGAGAAAUGCC | 0.17
27 | UACGUAGGUGGUUUUCCCCUGAUAGUGCUAAGGGGGCCUGGAAGUCUGGACUGGGCAGAGCUCAACACAGCGUGGCAAAGUGGCUGUGACUAGACUGCCGCUCUGGAUUCCUCGUCACUCAGCAGGGCAUCUCUGAGAUAAAUGCC | 0
28 | UACGUAGGUGGUUUUCCCCUGAUAGUGCUAAGGGGGCCUGGAAGUCCGGACUGAGCAGAGCUCAACACAGCGUGGCAAAGUGGCUGUGGCUAGACUGCCUCUCUGGAUUCCUCGUCACUCAGCAGGGCAUCUCUGAGAGAAAUGCC | 1.31
29 | UACGUAGGUGGUUUUCCCCUGAUAGUGCUAAGGGGGCCUGGAAGUCCGGACUGGGCAGAGCUCAACACAGCGUGGCAAAGUGGCUGUGGCUAGACUGCCUCUCAGGAUUCCUCGUCACUCAGCAGGGCAUCUCUGAGAGAAAUGCC | 1.5
30 | UACGUAGGUGGUUUUCCCCUGAUAGUGCUAAGGGGGCCUGGAAGUCGGGACUGGGCAGAGCUCAACACAGCGUGGCAAAGUGGCUGUGGCUAGACUGCCCCUCUGGAUUCCUCGUCACUCAGCAGGGCUUCUCUGAGAGAAAUGCC | 1.84
31 | UACGUAGGUGGUUUUCCCCUGAUAGUGCUAAGGGGGCCUGGAAGUCUGGACAGGGCAGAGCUCAACACAGUGUGGCAAAGUGGCUGUGGCUAGACUGCCUCUCUGGAUUCCUCGUCACUCAGCAGGGCAUCUCUGAGAGAAAUGCC | 1.24
32 | UACGUAGGUGGUUUUCCCCUGAUAGUGCUAAGGGGGCCUGGAAGUCUGGACAGGGCAGAGCUCAACACAGCGUGGCAAAGUGGCUGUGGCUAGACUACCUCUCUGGAUUCCUCGUCACUCAGCAGGGCAUCUCUGAGAGAAAUGCC | 0.53
33 | UACGUAGGUGGUUUUCCCCUGAUAGUGCUAAGGGGGCCUGGAAGUCUGGACAGGGCAGAGCUCAACACAGCGUGGCAAAGUGGCUGUGGCUAGACUGCCUCUCUGGAUUCCCCGUCACUCAGCAGGGCAUCUCUGAGAGAAAUGCC | 2.13
34 | UACGUAGGUGGUUUUCCCCUGAUAGUGCUAAGGGGGCCUGGAAGUCUGGACCGGGCAGAGCUCAACACAGCGUGGCUAAGUGGCUGUGGCUAGACUGCCUCUCUGGAUUCCUCGUCACUCAGCAGGGCAUCUCUGGGAGAAAUGCC | 2.1
35 | UACGUAGGUGGUUUUCCCCUGAUAGUGCUAAGGGGGCCUGGAAGUCUGGACCGGGCAGAGCUCAACACAGCGUGGCAAAGUGGCUGUGGCUAGACUGCCUCACUGGAUUCCUCGUCACUCAGCAGGGCAUCUCUGAGAGAAAUGCC | 1.08
36 | UACGUAGGUGGUUUUCCCCUGAUAGUGCUAAGGGGGCCUGGAAGUCUGGACCGGGCAGAGCUCAACACAGCGUGGCAAAGUGGCUGUGGCUAGACUGCCUCUCUGGAUUCCUCGACACACAGCAGGGCAUCUCUGAGAGAAAUGCC | 1.08
37 | UACGUAGGUGGUUUUCCCCUGAUAGUGCUAAGGGGGCCUGGAAGUCUGGACGGGGCAGAGCUCAUCACAGCGUGGCAAAGUGGCUGUGGCUAGACUGCCUCUCUGGGUUCCUCGUCACUCAGCAGGGCAUCUCUGAGAGAAAUGCC | 0
38 | UACGUAGGUGGUUUUCCCCUGAUAGUGCUAAGGGGGCCUGGAAGUCUGGACUGGGCAGAGCAUAACACAGCGUGGCAAAGUGGCUGUGGCUAGACUGACUCUCUGGAUUCCUCGUCACCCAGCAGGGCAUCUCUGAGAGAAAUGCC | 0.01
39 | UACGUAGGUGGUUUUCCCCUGAUAGUGCUAAGGGGGCCUGGAAGUCUGGACUGGGCAGAGCCCAACUCAGCGUGGCAAAGCGGCUGUGGCUAGACUGCCUCUCUGGAUUCCUCGUCACCCAGCAGGGCAUCUCUGAGGGAAAUGCC | 0
